Data as given in PMC2172029.
Where “and” joins values, the source holds several entries; their conditions need not be identical. Equal values may be shown once.

How the values were obtained:
[1] = molecular target: human coilin tagged at the COOH terminus with CFP or YFP (human), P38432; assay: FRET or BRET; conditions: remark: other sources report otherwise
[2] = molecular target: human coilin tagged at the NH2 terminus with CFP or YFP (human), P38432; assay: FRET or BRET; conditions: remark: other sources report otherwise

Row | Binder | apparent FRET efficiency [1] | apparent FRET efficiency [2]
1 | human coilin tagged at the COOH terminus with CFP or YFP (natural protein) MAASETVRLRLQFDYPPPATPHCTAFWLLVDLNRCRVVTDLISLIRQRFGFSSGAFLGLYLEGGLLPPAESARLVRDNDCLRVKLEERGVAENSVVISNGDINLSLRKAKKRAFQLEEGEETEPDCKYSKKHWKSRENNNNNEKVLDLEPKAVTDQTVSKKNKRKNKATCGTVGDDNEEAKRKSPKKKEKCEYKKKAKNPKSPKVQAVKDWANQRCSSPKGSARNSLVKAKRKGSVSVCSKESPSSSSESESCDESISDGPSKVTLEARNSSEKLPTELSKEEPSTKNTTADKLAIKLGFSLTPSKGKTSGTTSSSSDSSAESDDQCLMSSSTPECAAGFLKTVGLFAGRGRPGPGLSSQT[… about 200 residues …] | 38.2% | –
2 | human coilin tagged at the NH2 terminus with CFP or YFP (natural protein) MAASETVRLRLQFDYPPPATPHCTAFWLLVDLNRCRVVTDLISLIRQRFGFSSGAFLGLYLEGGLLPPAESARLVRDNDCLRVKLEERGVAENSVVISNGDINLSLRKAKKRAFQLEEGEETEPDCKYSKKHWKSRENNNNNEKVLDLEPKAVTDQTVSKKNKRKNKATCGTVGDDNEEAKRKSPKKKEKCEYKKKAKNPKSPKVQAVKDWANQRCSSPKGSARNSLVKAKRKGSVSVCSKESPSSSSESESCDESISDGPSKVTLEARNSSEKLPTELSKEEPSTKNTTADKLAIKLGFSLTPSKGKTSGTTSSSSDSSAESDDQCLMSSSTPECAAGFLKTVGLFAGRGRPGPGLSSQT[… about 200 residues …] | – | 39.3% and 41.2%
